# Data from PubChem BioAssay AID504333 (National Center for Advancing Translational Sciences (NCATS), 2011).
# In all, about 360,000 compounds went through this assay and about 16,000 (4.4%) were called active. Inconclusive means that the source gave no clear call. Such entries were picked first, then a sample of the others. The call rests on the fitted dose curve; in most records, active means well fitted inhibition curve with a large enough effect; inconclusive means small, poorly fitted or top-dose-only effect; inactive means no such curve, though single readings can be large or run the other way. Potencies beside an inconclusive call are fits to weak or partial responses and may not hold up.
# Molecular target: Bromodomain adjacent to zinc finger domain protein 2B (Homo sapiens) (UniProt Q9UIF8)
# Test: qHTS Assay for Inhibitors of BAZ2B; further: nearly all actives have a fitted effect of over 60% in size
# Conditions: AlphaScreen BAZ2B-H3K14Ac peptide displacement; activity change, negative = inhibition: at 114 µM (top of the series)
# Procedure, shortened: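 AlphaScreen displacement: compounds (up to 110uM) incubated 30 min at room temperature with a preformed 50 nM BAZ2B/50 nM biotinylated H3K14Ac peptide complex in PBS pH 7.4 with Tween-20. Donor and acceptor beads at 10 ug/mL final added, 20 min light-protected before reading.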
# On the % scale 0 is the no-effect control and ±100 the full control effect; potency means the concentration at half of the fitted maximal effect; tags describe the fitted curve by direction and shape.
# Sequence of UniProt Q9UIF8 (Q9UIF8 whole entry, looked up, the tested form may be a part): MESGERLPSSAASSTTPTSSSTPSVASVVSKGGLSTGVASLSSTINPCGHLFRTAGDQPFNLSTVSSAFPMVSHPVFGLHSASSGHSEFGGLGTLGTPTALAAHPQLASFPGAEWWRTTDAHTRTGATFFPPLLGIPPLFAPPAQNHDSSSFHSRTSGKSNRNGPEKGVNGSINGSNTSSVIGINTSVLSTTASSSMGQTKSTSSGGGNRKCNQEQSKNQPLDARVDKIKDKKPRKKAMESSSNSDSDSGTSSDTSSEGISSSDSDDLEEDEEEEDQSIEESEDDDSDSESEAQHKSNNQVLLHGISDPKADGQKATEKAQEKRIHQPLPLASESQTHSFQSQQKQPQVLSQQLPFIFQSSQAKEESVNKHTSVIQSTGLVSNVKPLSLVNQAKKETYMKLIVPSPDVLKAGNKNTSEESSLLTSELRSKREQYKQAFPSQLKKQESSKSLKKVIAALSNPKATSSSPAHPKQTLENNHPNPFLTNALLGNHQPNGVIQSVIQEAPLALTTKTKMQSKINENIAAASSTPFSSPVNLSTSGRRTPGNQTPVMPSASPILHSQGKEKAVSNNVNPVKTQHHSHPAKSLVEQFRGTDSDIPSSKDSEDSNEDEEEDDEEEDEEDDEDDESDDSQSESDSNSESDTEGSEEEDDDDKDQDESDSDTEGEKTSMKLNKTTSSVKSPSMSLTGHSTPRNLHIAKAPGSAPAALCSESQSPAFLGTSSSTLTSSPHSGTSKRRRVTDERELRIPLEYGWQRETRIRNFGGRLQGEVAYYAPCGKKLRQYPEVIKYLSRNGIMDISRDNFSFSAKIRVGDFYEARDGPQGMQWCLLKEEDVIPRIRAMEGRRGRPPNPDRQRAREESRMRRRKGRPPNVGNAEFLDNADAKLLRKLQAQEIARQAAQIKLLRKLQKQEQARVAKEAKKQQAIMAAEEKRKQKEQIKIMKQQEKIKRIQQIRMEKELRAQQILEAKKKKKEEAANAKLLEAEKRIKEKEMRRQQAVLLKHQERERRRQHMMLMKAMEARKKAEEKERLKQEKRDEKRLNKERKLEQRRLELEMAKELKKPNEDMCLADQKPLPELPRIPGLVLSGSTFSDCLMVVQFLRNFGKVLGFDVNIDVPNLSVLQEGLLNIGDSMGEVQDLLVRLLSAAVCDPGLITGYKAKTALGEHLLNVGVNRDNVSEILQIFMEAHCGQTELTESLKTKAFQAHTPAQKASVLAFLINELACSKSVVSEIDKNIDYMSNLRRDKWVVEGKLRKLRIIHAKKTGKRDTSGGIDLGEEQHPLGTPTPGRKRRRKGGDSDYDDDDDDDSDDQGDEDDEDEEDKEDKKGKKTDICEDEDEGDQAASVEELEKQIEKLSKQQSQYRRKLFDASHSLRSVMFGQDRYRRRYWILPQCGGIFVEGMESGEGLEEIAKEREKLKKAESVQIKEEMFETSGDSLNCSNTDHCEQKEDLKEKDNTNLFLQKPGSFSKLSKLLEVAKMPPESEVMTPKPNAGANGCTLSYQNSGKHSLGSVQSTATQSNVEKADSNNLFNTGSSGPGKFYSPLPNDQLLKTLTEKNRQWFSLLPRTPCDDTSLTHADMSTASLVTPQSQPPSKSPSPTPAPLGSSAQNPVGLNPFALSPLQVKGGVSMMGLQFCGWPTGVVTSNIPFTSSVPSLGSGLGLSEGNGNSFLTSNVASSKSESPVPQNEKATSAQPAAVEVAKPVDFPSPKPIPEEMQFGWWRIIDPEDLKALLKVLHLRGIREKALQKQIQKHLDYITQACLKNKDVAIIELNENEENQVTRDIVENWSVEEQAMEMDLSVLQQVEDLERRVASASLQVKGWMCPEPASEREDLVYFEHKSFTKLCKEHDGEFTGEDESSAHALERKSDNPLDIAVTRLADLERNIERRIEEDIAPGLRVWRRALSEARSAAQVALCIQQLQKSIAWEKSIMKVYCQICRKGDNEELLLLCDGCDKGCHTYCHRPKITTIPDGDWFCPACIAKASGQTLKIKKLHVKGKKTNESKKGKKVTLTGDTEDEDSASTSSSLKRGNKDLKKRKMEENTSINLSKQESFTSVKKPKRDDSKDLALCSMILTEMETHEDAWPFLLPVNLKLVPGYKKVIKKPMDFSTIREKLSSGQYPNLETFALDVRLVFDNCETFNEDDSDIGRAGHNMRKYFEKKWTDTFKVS
SMILES,Potency,"activity change, negative = inhibition"
Fc1ccc(NC(=S)Nc2cc(-c3ccccc3)[nH]n2)cc1Cl,"inconclusive: 17.8 µM [inhibitor, full curve]",
Cc1ccc(N(CC(=O)NCCc2ccc(Cl)cc2)S(=O)(=O)N(C)C)cc1,,inactive: 22.4%
CCOC(=O)c1nc2ccccc2s1,,inactive: 10.3%
CC/C(=C/c1sc2ccc(C)cc2[n+]1CCO)SC,"inconclusive: 89.1 µM [inhibitor, single point]",
O=c1[nH]c(C2CCCN(S(=O)(=O)c3cccc(F)c3)C2)nc2c1nnn2Cc1ccccc1 (configuration not stated),,inactive: -7.85%
COc1ccccc1C(=O)NN1C(=O)/C(=C/c2cccn2C)SC1=S,active: 8.91 µM,
COc1ccc(-c2cc(C(=O)Nc3ccc(O)cc3)c3ccccc3n2)cc1OC,"inconclusive: 50.1 µM [inhibitor, partial curve]",
COc1ccc(N2CC(C(=O)Nc3nnc(SCC(=O)NC(C)(C)C)s3)CC2=O)cc1 (configuration not stated),,inactive: -3.16%
COc1ccc(N2CCN(CC(O)COC(c3ccc(F)cc3)c3ccc(F)cc3)CC2)cc1 (configuration not stated),active: 20 µM,
CN1/C(=C\C=N\NC(=O)c2cccnc2)C(C)(C)c2ccccc21,"inconclusive: 22.4 µM [inhibitor, full curve]",
COc1c(Br)cc(Br)cc1C(=O)O,"inconclusive: 89.1 µM [inhibitor, single point]",
COCCNC(=O)/C(C#N)=C/c1cc(C)n(-c2ccc(C)cc2)c1C,"inconclusive: 56.2 µM [inhibitor, partial curve]",
Cc1ccc(Cn2c(C(=O)O)c(CNCc3ccccc3Cl)c3ccc(C)cc32)cc1,"inconclusive: 79.4 µM [inhibitor, single point]",
COCC(=O)Nc1ccc(S(=O)(=O)NCC2CCCO2)cc1 (configuration not stated),,inactive: 1.27%
CCOc1cc(/C=N\NC(=O)OC)ccc1OC(=O)c1ccco1,,inactive: -1.58%
Cc1cc(C)nc(SCc2nnc(SCC(=O)Nc3nc(-c4ccccc4)cs3)n2C)n1,,inactive: 8.57%
COc1cccc(CNC(=O)c2ccc(CSc3nc4ccncc4n3Cc3cccc(C)c3)cc2)c1,,inactive: -11%
CCCCN1C(=O)C(O)=C(C(C)=O)C1c1ccccc1 (configuration not stated),"inconclusive: 25.1 µM [inhibitor, single point]",
Fc1ccc(NC(=S)N2CCn3cccc3C2c2cccnc2)cc1 (configuration not stated),"inconclusive: 44.7 µM [inhibitor, partial curve]",
Nc1ccccc1C(=O)/C=C/c1ccc2c(c1)OCO2,active: 14.1 µM,
CCOC(=O)c1c(C)[nH]c(C)c1S(=O)(=O)N1CCC(c2ccccc2)C1 (configuration not stated),"inconclusive: 79.4 µM [inhibitor, partial curve]",
CCN(C(=S)Nc1cccnc1)c1cccc2ccccc12,"inconclusive: 79.4 µM [inhibitor, partial curve]",
